# Source: the supplement of paper PMC4466236
# Whole data set: some 33,000 sequences, median “E-score (dimensionless, -0.5 to 0.5)” near -0.058, cut for the highest 2% near 0.35. This is one part of the list.
# Test system: MvaT
# Test: PBM 8-mer E-score (mean of HK and ME arrays) (E-score (dimensionless, -0.5 to 0.5)); higher = stronger relative binding preference; most listed sequences are background and not binding sites
# Method: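 Protein binding microarray: GST-tagged full-length MvaT (P. aeruginosa PAO1) bound to two universal double-stranded 60-mer arrays (ME and HK), each with a constant 25-mer primer and a variable 35-mer region covering all 8-mers. The 8-mer E-score (rank-based, range -0.5 to 0.5, >0.45 = specific binding) is the mean of the two arrays.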
row,Sequence,PBM 8-mer E-score
1,CTGGTAAG,-0.0354
2,TCAGCGCA,-0.0216
3,GATGCGCA,-0.129
4,GGCGGTAC,-0.101
5,ATGTGTGG,0.0279
6,CGAATTCC,-0.0677
7,AGTCCCAC,-0.11
8,AAAGCTTA,0.121
9,ACAACCAA,0.0885
10,GAGCATAC,-0.0435
11,GCAACAAC,0.163
12,CGAAATAA,0.374
13,TCACTTCA,0.0874
14,ATGCAATA,0.134
15,AATAAAAT,0.388
16,ATCTCCAC,-0.106
17,GCCTGGCA,-0.242
18,GGTGTAGA,-0.0679
19,AGCACCGG,-0.234
20,AGCATCCT,-0.323
21,AGACATCT,0.0505
22,GATTCCCA,-0.084
23,AAGCGTTC,-0.101
24,CAGGATCC,-0.277
25,AATTTCCT,0.105

row,Sequence,PBM 8-mer E-score
1,AGACTATA,0.266
2,AGTAAACC,0.0832
3,CGACGTCA,-0.129
4,CAATTAAA,0.305
5,CACGGACG,-0.187
6,CGCTTGCC,-0.327
7,TTAGAGAA,-0.0978
8,CCCTCAGA,-0.15
9,ATGCCTCC,-0.229
10,GGGAGGAC,-0.276
11,CGGACACA,-0.0158
12,ACCGAAGT,0.103
13,AATAGTCC,0.12
14,GAACCCCC,-0.274
15,CTGTCACC,-0.285
16,CTTTAAAG,0.25
17,CATGTCAG,-0.042
18,GCTTGGCC,-0.263
19,CTAGAATC,0.0185
20,TCAGCCCA,-0.133
21,CATCACTC,-0.0746
22,AGTGAGCC,-0.215
23,GATCAAAC,-0.0409
24,AGTTGACG,0.0458
25,GAAGCCTA,-0.0743

row,Sequence,PBM 8-mer E-score
1,ACACGAAC,-0.0725
2,CGTTTCAC,-0.142
3,CACTAACA,0.193
4,ATCGTCAT,-0.113
5,CGGGGCAA,-0.057
6,CCCGTACG,-0.15
7,ACGACTGG,-0.131
8,CCTGCCTC,-0.249
9,CCTTCAAC,-0.115
10,GAAGTGAA,-0.0533
11,GTCCGCTA,-0.0998
12,AGCGCCCA,-0.25
13,ACTAGGTG,0.0588
14,GCGCATAA,0.193
15,ATCTTACC,0.0512
16,GCATAGGA,0.0818
17,ATCTCCCA,-0.104
18,ATTAGGTA,0.257
19,GCGCCGCA,-0.107
20,CGCTGCCG,-0.296
21,GACGGGCC,-0.201
22,TAACTAAA,0.312
23,CCGCGGCC,-0.227
24,ACGTCTTA,0.0249
25,AGAATCTG,-0.0999

row,Sequence,PBM 8-mer E-score
1,GCTAAAAA,0.141
2,CACGCATA,-0.0162
3,CAGAGTAC,-0.0672
4,TGCCTAAA,0.0359
5,CAACGCTG,-0.0694
6,AGCGTTTA,0.0503
7,GCCGAAGA,-0.0891
8,GGGGCAAA,-0.145
9,CATCTAAA,0.121
10,AAATGCCT,-0.0883
11,GACATGTA,0.238
12,ACTGCAAC,0.0811
13,GCCTAGCA,-0.27
14,AATATCCT,0.183
15,CCGGTCAG,-0.0505
16,ATCCGGTC,-0.186
17,GTCCATAA,0.0831
18,CACACTAA,0.102
19,ACTCGTAT,0.0784
20,AGAGACCC,-0.314
21,GACCGTGC,-0.112
22,GTGAGCGA,-0.064
23,AGGCTGAA,-0.179
24,CCGTCTCC,-0.264
25,CAGGAGCG,-0.212

row,Sequence,PBM 8-mer E-score
1,AAGGGTGA,-0.247
2,CCCAGACC,-0.252
3,CGAGTCCA,-0.208
4,GAGCGAAA,0.00854
5,CTGGGCTC,-0.278
6,ACTTAACT,0.275
7,CTCGGGCC,-0.287
8,CAATGGAC,-0.00508
9,ACTGCATA,0.0711
10,CCGCCCAG,-0.0541
11,GACTGCTA,-0.0765
12,ATTTAGCG,0.243
13,ACCACAAC,0.155
14,AACCGATT,0.0532
15,CGAACCAC,-0.118
16,AGTGCTCC,-0.282
17,AGAATCAG,-0.00486
18,ATGTATCA,0.291
19,GAGTAATC,-0.00607
20,GTAAATCA,0.189
21,AAAATGTT,0.262
22,GCTGGACC,-0.262
23,CGGAACAG,-0.0406
24,GAAGCCGC,-0.331
25,TCCCACCA,-0.165

row,Sequence,PBM 8-mer E-score
1,GACTGCTC,-0.211
2,CAGGCATA,0.0107
3,GATAGCAC,-0.0624
4,GGGACGGA,-0.273
5,AAGTACGA,0.133
6,CCGTTGAA,-0.0332
7,CAGAATCC,-0.168
8,ATCGGCTA,-0.0243
9,TATAACGA,0.374
10,CCCACCTA,-0.127
11,ACGAGTGC,-0.179
12,ACTAAACC,0.146
13,GCGTAACC,-0.127
14,CGCCACCA,-0.103
15,ATGGTTAC,-0.0232
16,CATATAGC,0.0736
17,GGATTGGA,0.0676
18,CGACTTAC,-0.107
19,AAGGGCAG,-0.213
20,ACAGTAAA,0.241
21,GAGTGACC,-0.186
22,GGCAATTA,0.211
23,CTGTTTAA,0.302
24,ATACCGGC,-0.106
25,CCTTCGTA,-0.28

row,Sequence,PBM 8-mer E-score
1,CTTTCGGC,-0.243
2,CACATCTG,-0.163
3,AGTACGGG,-0.11
4,TAAGCTAA,0.139
5,AATCGCAA,0.0838
6,ATGGATAC,0.0416
7,AAACAAAG,0.192
8,AAGTAAAC,0.192
9,GTCGCCAC,-0.145
10,CGATAGTC,-0.0515
11,CGTGGCAA,-0.0428
12,TCATTTAA,0.327
13,GTACCGAC,-0.2
14,AGAACTCT,0.0401
15,AGGCACCG,-0.214
16,GAGAGGCA,-0.227
17,CCACACCA,-0.0264
18,TCTGGTAA,0.0776
19,GGTTACGA,-0.168
20,ATGGGGTG,-0.257
21,ATTAAGGC,0.172
22,CACTTTAC,0.164
23,CTAATCAA,0.102
24,CGTCTAAC,-0.0692
25,AGGACGCC,-0.274

row,Sequence,PBM 8-mer E-score
1,CAGCGAAA,-0.0595
2,CCCTTTCA,-0.089
3,GTGGCCTA,-0.304
4,ATTACAAG,0.278
5,CACGGGGA,-0.0937
6,GCTAATAC,0.27
7,CTCTTCCA,-0.234
8,ACATTATA,0.396
9,CCGTATCA,-0.0815
10,TTGATAAA,0.253
11,ATAACGGG,0.121
12,ATGAATCA,0.123
13,GACAAGTC,-0.291
14,CATACACG,0.0143
15,CTGCAGGA,-0.114
16,TCCGAGAA,-0.205
17,GAATGACA,-0.0156
18,AATAGCGT,0.0308
19,CGAGCTCA,-0.276
20,CAGGTAAG,-0.0439
21,AGGCGGTA,-0.196
22,GTAAGCGA,0.0773
23,CCATAAAC,0.122
24,AGACGCGC,-0.176
25,CGACCCGA,-0.254

row,Sequence,PBM 8-mer E-score
1,AAGAATGT,0.141
2,CCAGGCGG,-0.163
3,GGGTGGCA,-0.102
4,GGTCCCAC,-0.151
5,AGGTCGAA,-0.0945
6,AAACTGCC,-0.11
7,CGTTCAGA,-0.134
8,AGTACAAA,0.286
9,CGGCGATA,0.0426
10,CAACACTG,0.0109
11,CGCTACCC,-0.219
12,CGATAACA,0.271
13,ATGATGCA,0.0558
14,ATTGCATA,0.202
15,AGCTAACC,-0.149
16,ACTGATAT,0.282
17,ACACAAAT,0.237
18,AAGCATGG,-0.163
19,AACACGAG,0.0124
20,CCGCAGAG,-0.17
21,ATATGCAC,0.337
22,AGGTGGTC,-0.218
23,GTTACCCA,0.0319
24,GATCGGAC,-0.286
25,AAGATTAC,0.1

row,Sequence,PBM 8-mer E-score
1,ACCTGAGG,-0.13
2,GCGATAGA,-0.258
3,ATCGTTGG,-0.167
4,AAGTATCA,0.204
5,CAAACCAA,0.184
6,ATATAGCA,0.324
7,ACACGCGG,-0.136
8,GCTACACC,-0.125
9,GCCTGGAA,-0.104
10,ACATGTAG,0.209
11,AACACTAC,0.105
12,CGGCACAG,-0.151
13,GAGATTTA,0.0378
14,GTCGTACA,0.06
15,ATGCGGAA,-0.0895
16,CCACACGG,-0.162
17,AGAATCGC,-0.0249
18,CACTATGC,0.012
19,AGCCGTGC,-0.283
20,ACTTAATA,0.4
21,CAAAGCTA,-0.186
22,ACGCCAAA,-0.0145
23,CCGCGAAA,-0.151
24,GGATTGAC,-0.169
25,AGAAGCCA,-0.118

row,Sequence,PBM 8-mer E-score
1,ATGAGGAG,-0.242
2,CCCGTCAC,-0.179
3,ATCGATGC,0.0149
4,CCGACTAG,-0.0959
5,AAATTTAT,0.384
6,CTTAATGA,0.0908
7,AGCGGCAT,-0.0757
8,GACGATAA,0.145
9,AGTATCAC,0.0376
10,GATCTTCC,-0.166
11,AATCACGG,-0.0534
12,GTCCAGGA,-0.138
13,GCATTTCC,-0.0511
14,TTCACCAA,0.18
15,CGGATGGA,-0.171
16,AATGATCT,-0.0643
17,GCCTTATA,0.188
18,AGGATTAT,0.193
19,CCAAAAGC,-0.105
20,CAGGCATC,-0.23
21,AGCATACC,-0.0477
22,ACAGTACC,0.0272
23,ACAACTCG,0.0983
24,ATCGAACC,-0.0363
25,CGTTTCAG,-0.0777

row,Sequence,PBM 8-mer E-score
1,AGCATGAG,-0.176
2,CATTTACC,0.152
3,CACAGTCA,-0.113
4,ACGTACCC,-0.128
5,AATATGTG,0.368
6,TCAGCGGA,-0.0835
7,GTGTGGGA,0.0582
8,CATTCATC,0.0494
9,CGAAAACG,-0.141
10,CGTCAAAG,-0.136
11,CCTTATAA,0.338
12,ATCGTGGC,-0.212
13,TGCAAAAA,0.109
14,GGGGATTA,-0.0867
15,ATTTCTCG,0.174
16,CCGGTTGA,-0.0358
17,ACGAGCGG,-0.271
18,GTACGGAC,-0.24
19,GAATTACC,0.151
20,GGCTGCCC,-0.243
21,GGCTGATA,-0.0182
22,AGGAGCGC,-0.259
23,ACAGGGGG,-0.216
24,AAATGGAT,0.103
25,ATCCCGGA,-0.0572

row,Sequence,PBM 8-mer E-score
1,CAACCAGC,-0.188
2,GCGCCAGC,-0.0869
3,CGAGTATC,0.0738
4,ACTTTCGC,0.0699
5,AACCAGGT,-0.111
6,AGGGCCGC,-0.285
7,GAAGTTCA,0.16
8,AACCGCGC,0.0275
9,AGGTGGAG,-0.207
10,CGATGCGA,-0.143
11,GAAACAAA,0.271
12,CTAGCTAG,-0.0718
13,AAAGAAAG,0.281
14,AGCGACCT,-0.0364
15,GCTAGTCC,-0.297
16,AATTCTCA,0.0749
17,AGACGACC,-0.202
18,AGCTCTGA,-0.129
19,AATAGCAT,0.191
20,CGTCCACG,-0.152
21,CAAGTAGC,-0.0211
22,ATAATTCG,0.228
23,GATCAATA,0.152
24,CTAACTGA,0.0161
25,CGGGCTAC,-0.163

row,Sequence,PBM 8-mer E-score
1,AGCTTTTA,0.163
2,ACGCGAAC,-0.0277
3,ACCATGGA,-0.142
4,GCGTGGAC,-0.192
5,CGTGTCTA,-0.129
6,GCGACGCA,-0.0675
7,TGTACTAA,0.17
8,AAGAAGAG,-0.027
9,CTCTGGGA,-0.112
10,AGTCCACC,-0.22
11,AGTGGGCA,0.0126
12,CGAGATAC,-0.0241
13,GTGGTCAA,0.0494
14,GAAATACA,0.0961
15,ACGCATGA,-0.132
16,CCCCGACA,-0.186
17,AATTCCGT,0.0241
18,CAATTCAC,0.0398
19,TGAGCACA,-0.0844
